One test concerns the target His-SUMO-SAG (UniProt Q9UBF6). The test is described as follows: pull-down; purified GST-tagged and His-SUMO-tagged proteins mixed in binding buffer (50 mM Tris-HCl pH 7.5, 1% Triton X-100, 150 mM NaCl, 1 mM DTT, 0.5 mM EDTA); pulled down with Ni-NTA agarose or GST beads for 4 h; no CUL-5 present; both purified.
The target of test [1] is SAG (endogenous) (human (endogenous in liver cancer cell lines)) (UniProt Q9UBF6). The test can be described thus: co-IP; endogenous proteins of liver cancer cells, unstressed; IP with anti-SAG Ab or anti-RHEB Ab, normal IgG as control; co-IP lysis buffer (50 mM Tris-HCl, 0.5% NP-40, 120 mM NaCl, 1 mM EDTA, pH 8.0).
The next test has as its target FLAG-UBE2M (UniProt P61081). The test is described as follows: co-IP; PLC/PRF/5 and SK-HEP-1 cells transfected with FLAG-tagged plasmids for 48 h; IP with FLAG beads, immunoblot for endogenous RHEB. Background: A western blot detects proteins with antibodies after separation by electrophoresis.
Another test addresses FLAG-SAG (UniProt Q9UBF6). The description is as above.
Another test deals with T1, FLAG-UBE2F (UniProt Q969M7).
T1 sequence: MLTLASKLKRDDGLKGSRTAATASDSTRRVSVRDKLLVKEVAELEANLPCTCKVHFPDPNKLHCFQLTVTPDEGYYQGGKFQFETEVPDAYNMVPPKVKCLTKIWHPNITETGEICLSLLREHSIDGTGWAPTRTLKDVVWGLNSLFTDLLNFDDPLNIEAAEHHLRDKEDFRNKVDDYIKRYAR
The description is as above.

Amino acid sequences for entries named in this document (tags omitted).
UniProt P61081: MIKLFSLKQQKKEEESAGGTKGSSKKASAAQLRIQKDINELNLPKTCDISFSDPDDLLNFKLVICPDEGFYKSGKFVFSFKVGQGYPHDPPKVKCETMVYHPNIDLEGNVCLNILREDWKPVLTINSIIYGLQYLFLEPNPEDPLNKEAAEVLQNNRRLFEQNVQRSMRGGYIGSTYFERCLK

For test [2], the target named is RHEB (endogenous) (human (endogenous in PLC/PRF/5 and SK-HEP-1)) (UniProt Q15382). The test can be described thus: co-IP; endogenous proteins of liver cancer cells, unstressed; IP with anti-SAG Ab or anti-RHEB Ab, normal IgG as control; co-IP lysis buffer (50 mM Tris-HCl, 0.5% NP-40, 120 mM NaCl, 1 mM EDTA, pH 8.0).

These are yes or no findings as the source states them, for the method shown. For part of these data: In cells and extracts the contact can be indirect. Some entries that bind do so weakly or less than the wild type. For part of these data: Where a sequence is shown, tags or fusion partners need not be part of it.

For GST-RHEB (from UniProt Q15382 1-184), in the test with His-SUMO-SAG, the binding entry was “binds”.
Consider “RHEB (endogenous) (from UniProt Q15382 1-184)”, for which the binding entry in test [1] is given as “binds”; in the test with FLAG-UBE2M, “no binding”; in the test with FLAG-SAG it was “binds”; with FLAG-UBE2F it was “no binding”.

B1: UBE2F (endogenous) (enzyme, UniProt Q969M7 1-185)
chain: T1 sequence
Regarding B1, the binding result in test [2] was “no binding”.

(Values after article PMC11832924.)
